Numbering of substitutions follows the chain as printed. A value given as a limit tells only on which side of the number the result lay.

Experimental findings from patent US20260258145A1 (CYTOMX THERAPEUTICS, published 2026) are described below.

Sequences and labels used below:
T1: human IL6R (R and D Systems, Cat No. 227-SR/CF) (human, UniProt P08887 20-358)
T1 construct: Bought protein; also called interleukin 6 receptor
T1 sequence (looked up): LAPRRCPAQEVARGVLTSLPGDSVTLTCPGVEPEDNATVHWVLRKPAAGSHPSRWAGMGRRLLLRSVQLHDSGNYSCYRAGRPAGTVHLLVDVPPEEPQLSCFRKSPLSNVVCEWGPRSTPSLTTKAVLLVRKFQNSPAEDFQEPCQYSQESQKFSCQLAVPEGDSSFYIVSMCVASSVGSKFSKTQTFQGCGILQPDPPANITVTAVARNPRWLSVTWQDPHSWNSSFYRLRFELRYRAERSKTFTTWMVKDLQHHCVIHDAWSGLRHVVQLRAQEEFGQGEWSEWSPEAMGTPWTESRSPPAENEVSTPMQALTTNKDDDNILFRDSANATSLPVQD

B1: 4792^601AV1 (antibody, human IgG1, kappa)
light: QGQSGQYGSCSWNYVHIFMDCGSSGGSGGSGGSAQNLLGMVGGSDIQMTQSPSSLSASVGDRVTITCRASQDISSYLNWYQQKPGKAPKLLIYYTSRLHSGVPSRFSGSGSGTDFTFTISSLQPEDIATYYCQQGNTLPYTFGQGTKVEIKRTVAAPSVFIFPPSDEQLKSGTASVVCLLNNFYPREAKVQWKVDNALQSGNSQESVTEQDSKDSTYSLSSTLTLSKADYEKHKVYACEVTHQGLSSPVTKSFNRGEC
heavy: QVQLQESGPGLVRPSQTLSLTCTVSGYSITSDHAWSWVRQPPGRGLEWIGYISYSGITTYNPSLKSRVTISRDNSKNTLYLQMNSLRAEDTAVYYCARSLARTTAMDYWGQGSLVTVSS[… human IgG1 constant region …]
notes: It was tested as a reaction mixture after incubation in synovial fluid, so it was partly cleaved at the substrate
B2: 4792^3458AV1 (antibody, human IgG1, kappa)
light: B1 light with A34P, Q35V, N36G, L37Y, L38T, G39S, M40S, V41L
heavy: B1 heavy
notes: as for B1
B3: 4792^559AV1 (antibody, human IgG1, kappa)
light: B1 light with A34Q, Q35N, N36Q, L37A, G39R, V41A
heavy: B1 heavy
notes: as for B1
B4: 4792^3463AV1 (antibody, human IgG1, kappa)
light: B1 light with A34D, Q35W, N36L, L37Y, L38W, G39P, M40G, V41I
heavy: B1 heavy
notes: as for B1
B5: 4792^3457AV1 (antibody, human IgG1, kappa)
light: B1 light with A34S, Q35T, N36F, L37P, L38F, V41F
heavy: B1 heavy
notes: as for B1

For the assay, the target named is T1, human IL6R (R and D Systems, Cat No. …). The experiment in a line: ELISA on plate-coated human IL6R; binding of the activatable antibody after incubation in RA synovial fluid, compared to the binding of the parental anti-IL6R antibody. (In general: ELISA stands for enzyme-linked immunosorbent assay.)
As for B1, the “Activation in SyF” value was over 30%.
The figure for B2 is 20%.
The figure for B3 is 20%; for B4 it is over 30%; for B5 it is over 50%.
